Source: paper PMC4336329 (PLoS ONE, 2015)
The campaign covered roughly 310,000 compounds. About 2,200 (0.71%) showed an effect of 50% or more. Effects have a minus sign here. Some of the results follow.

Molecular target: human ether-à-go-go-related gene (hERG) potassium channel (human, UniProt Q12809)
Assay: primary screen, population patch clamp on CHO cells stably expressing hERG

Sequence of human ether-à-go-go-related gene (hERG) potassium channel (Q12809 whole entry, looked up): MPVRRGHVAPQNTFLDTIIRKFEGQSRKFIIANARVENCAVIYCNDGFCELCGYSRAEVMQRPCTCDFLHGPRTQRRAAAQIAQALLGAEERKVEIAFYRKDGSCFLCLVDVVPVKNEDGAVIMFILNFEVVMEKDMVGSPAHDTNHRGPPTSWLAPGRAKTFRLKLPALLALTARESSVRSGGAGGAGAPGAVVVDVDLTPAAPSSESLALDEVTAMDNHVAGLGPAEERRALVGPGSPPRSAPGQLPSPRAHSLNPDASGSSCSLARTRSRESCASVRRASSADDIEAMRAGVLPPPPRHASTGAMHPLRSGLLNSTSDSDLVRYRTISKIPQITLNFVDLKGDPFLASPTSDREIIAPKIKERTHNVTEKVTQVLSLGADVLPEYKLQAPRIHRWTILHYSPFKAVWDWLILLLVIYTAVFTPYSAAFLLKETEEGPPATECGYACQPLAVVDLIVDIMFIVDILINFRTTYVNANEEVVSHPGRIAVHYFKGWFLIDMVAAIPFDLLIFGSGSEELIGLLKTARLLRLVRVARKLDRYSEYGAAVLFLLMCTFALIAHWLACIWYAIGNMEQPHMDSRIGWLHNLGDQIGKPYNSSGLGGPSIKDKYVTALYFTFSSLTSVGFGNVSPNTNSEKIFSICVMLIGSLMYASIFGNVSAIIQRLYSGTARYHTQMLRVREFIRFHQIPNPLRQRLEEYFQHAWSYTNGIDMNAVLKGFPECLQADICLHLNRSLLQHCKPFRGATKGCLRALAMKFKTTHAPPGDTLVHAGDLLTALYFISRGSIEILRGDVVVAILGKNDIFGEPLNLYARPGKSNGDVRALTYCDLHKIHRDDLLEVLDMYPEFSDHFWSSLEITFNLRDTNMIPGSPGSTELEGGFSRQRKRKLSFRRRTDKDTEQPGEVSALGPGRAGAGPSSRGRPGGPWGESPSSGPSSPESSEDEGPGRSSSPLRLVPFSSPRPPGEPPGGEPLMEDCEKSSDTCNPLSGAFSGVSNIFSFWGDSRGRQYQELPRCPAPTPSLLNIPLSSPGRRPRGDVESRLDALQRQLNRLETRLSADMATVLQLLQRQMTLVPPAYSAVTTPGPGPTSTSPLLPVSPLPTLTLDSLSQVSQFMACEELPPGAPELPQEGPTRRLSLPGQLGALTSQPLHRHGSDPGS

Row | SMILES | hERG current change (%, negative = inhibition) at 1uM
1 | CC(=O)/C(C#N)=C1\NC(=O)C(Cc2ccc(F)cc2)S1 (centres unmarked) | 17.3%
2 | CCc1c(C)sc2nc3c(C(=O)N4CCOCC4)cc(C(=O)c4cc(F)ccc4O)cn3c(=O)c12 | 15%
3 | O=C(NCCCc1ccccc1)c1cccc(S(=O)(=O)N2CCOCC2)c1 | 0.916%
4 | CC1CCCC(C)N1CCCNC(=O)C1CCCN(c2ncnc3c2nc2n3CCCCC2)C1 (centres unmarked) | 8.89%
5 | CCCCNC(=O)C1CCN(C(=O)Nc2ccc(C)cc2)CC1 | 14.7%
6 | CCOc1ccc(/C=N/NC(=O)CCC(=O)Nc2ccc(F)cc2)cc1 | 14.9%
7 | O=c1oc2c(CN3CCCCC3)c(O)ccc2c2c1CCCCC2 | -16.5%
8 | Cc1cc2nc(-c3ccncc3)cc(C(F)(F)F)n2n1 | 0.682%
9 | CCCCn1c(N)c(N(CCC(C)C)C(=O)C2CC(=O)N(Cc3ccc(C)cc3)C2)c(=O)[nH]c1=O (centres unmarked) | 16.8%
10 | COc1ccc(OCCSc2nc(N)cc(N)n2)cc1 | -5.65%
11 | COCc1[nH]nc2c1C(c1ccnc3ccccc13)C(C#N)=C(N)O2 (centres unmarked) | 8%
12 | COc1ccc(CCC(=O)NC(C)c2ccccc2)cc1OC (centres unmarked) | 6.3%
13 | O=C(CCCN1C(=O)/C(=C/c2cccc(Br)c2)SC1=S)Nc1cccnc1 | 16.7%
14 | N#Cc1cc(N)ccc1-n1cccc1 | 10.5%
15 | O=C(COC(=O)c1ccc(S(=O)(=O)N2CCOCC2)cc1)NCc1cccs1 | 8.84%
16 | COc1cc(/C=N/NC(=O)c2ccncc2)ccc1OC(=O)c1ccccc1Cl | -24.3%
17 | COc1cc(/C=C2\CCCc3c2nc2ccccc2c3C(=O)O)cc(OC)c1O | 7.67%
18 | Cc1ccc(C(=O)NNC(=O)c2ccc(-n3cncn3)c([N+](=O)[O-])c2)cc1 | 13.3%
19 | CC(C)(C)n1ncc2c(=O)n(CC(=O)NCc3ccccc3)cnc21 | 15.4%
20 | Cc1c(O[C@@H]2O[C@H](CO)[C@@H](O)[C@H](O)[C@H]2O)ccc2c1oc(=O)c1ccccc12 | 16.9%
21 | Cc1ccc(NC(=O)c2ccccc2[N+](=O)[O-])nc1 | 4.35%
22 | COc1ccccc1/C=C/C(=O)Nc1ccc(S(=O)(=O)Nc2cc(C)on2)cc1 | 3.96%

Row | SMILES | hERG current change (%, negative = inhibition) at 1uM
23 | C/C=C(\C)CN1CCC(n2nccc2NC(=O)c2ccc3c(c2)OCO3)CC1 | -4.59%
24 | Cc1ccc(CN2C(=O)C(C)Nc3ncnc(N4CCOCC4)c32)cc1.O=C(O)C(F)(F)F (centres unmarked) | 15.6%
25 | O=c1[nH]c2ccc(NC(=S)NC3CCCCC3)cc2[nH]1 | 11.6%
26 | Cc1ccc(NC(=O)Nc2c(C)n(C)n(-c3ccccc3)c2=O)cc1 | -0.363%
27 | CCOC(=O)C1CCCN(c2c(NCCc3cccc(C)c3)c(=O)c2=O)C1 (centres unmarked) | 10.4%
28 | Cc1ccc2c(c1)CC1(CN2C)C(=O)NC(=O)N(c2cccc(C)c2C)C1=O (centres unmarked) | -12.9%
29 | C/C(=N/Oc1nc(C)cc(C)n1)c1ccccc1 | 5.77%
30 | CC(=O)NNc1cc(N2CCOCC2)nc(N2CCOCC2)n1.Cl | 15.4%
31 | CCO[C@H]1OC(C(=O)NC2CC2)=C[C@@H](c2ccc(Br)cc2)[C@@H]1CCCO | -7.47%
32 | COc1ccc(-c2cnnc(N/N=C/c3ccc(O)cc3)n2)cc1 | 11.4%
33 | C=CCNS(=O)(=O)c1ccc2c(c1)n(C)c(=O)n2C | 9.48%
34 | CCOCCCNC(=O)CN1C(=O)/C(=C\c2ccc(C)cc2)Sc2ccccc21 | 0.457%
35 | O=C(CNS(=O)(=O)c1cccc2nsnc12)NCc1ccc(Cl)cc1 | 7.26%
36 | Cc1ccc(C(=O)Nc2ccccc2N2CCOCC2)cc1S(=O)(=O)N1CCOCC1 | -6.31%
37 | COc1cc(SC)ccc1C(=O)NC(C)C | 20.7%
38 | O=C(N/N=C/c1ccc([N+](=O)[O-])s1)c1ccccc1Br | 16.9%
39 | COc1ccc(S(=O)(=O)N2CCN(C(=O)CCC3CCCC3)CC2)cc1 | -1.99%
40 | Cc1cccc(NCN2C(=O)c3ccccc3C2=O)c1 | 7.81%
41 | CCC(C)[C@H](NC(=O)NC1CC1)C(=O)O (some centres unmarked) | 5.22%
42 | C=CCSc1nc2c(c(=O)[nH]c(=O)n2C)n1C/C=C(/C)Cl | 2.37%
43 | COc1ccc([N+](=O)[O-])cc1N/C(=N/S(=O)(=O)c1ccccc1)c1ccccc1 | -7.1%
44 | COc1ccccc1CCC(=O)N1CCN(S(=O)(=O)c2cccc(F)c2)CC1 | -0.0623%

Row | SMILES | hERG current change (%, negative = inhibition) at 1uM
45 | Cc1cccc(-n2c(C)cc(C=C3C(=O)c4ccccc4C3=O)c2C)c1 | 22.3%
46 | CCCCNC(=O)c1sc(=S)n2c1[nH]c(=O)c1ccc(C(=O)NCCc3ccc(OC)c(OC)c3)cc12 | 6.01%
47 | Cc1ccc(N2CCN(C(=O)C3CCC(=O)N(Cc4ccc(Cl)cc4)C3)CC2)c(C)c1 (centres unmarked) | 6.1%
48 | COC(=O)c1sc(N2C(=O)C(O)=C(C(=O)c3ccc(C)o3)C2c2cc(OC)ccc2OC)nc1C (centres unmarked) | 14.4%
49 | O=C(CCCn1c(=S)[nH]c2cc3c(cc2c1=O)OCO3)NCc1ccco1 | 8.37%
50 | Cc1ccc(NC(=O)N2CCCC2C(=O)NCCC2=CCCCC2)cc1 (centres unmarked) | -1.7%
51 | NC(=O)CC(NC(=O)c1ccccc1)c1ccc(NC2CCCCC2)c([N+](=O)[O-])c1 (centres unmarked) | 12.5%
52 | COc1ccc(S(=O)(=O)N2CCOCC2)cc1C(=O)Nc1ccon1 | 9.68%
53 | Cc1nnc2c(NC3CCCCC3)nc3ccccc3n12 | 11.4%
54 | CCOc1ccc(N(CC(=O)N2CCCCCC2)S(=O)(=O)c2ccc(C)cc2)cc1 | 3.03%
55 | COc1ccccc1CN1CCN(Cc2ccc(Cl)cc2)CC1.O=C(O)C(=O)O | -10.8%
56 | COc1ccc(CNC(=O)Cn2nc(-c3ccc4c(c3)OCCO4)ccc2=O)cc1 | 2.61%
57 | O=C(NCc1ccco1)c1ccc(COc2cc(Cl)ccc2Cl)cc1 | 4.93%
58 | O=C(CN1C(=O)NC2(CCCCC2)C1=O)N1CCN(S(=O)(=O)c2cccc(F)c2)CC1 | -33.4%
59 | COC(=O)c1cn(NC(=O)C2CCCCC2)c(=O)c2ccccc12 | 4.13%
60 | Cc1ccc(CSc2nnc(SCC(=O)N/N=C/c3ccc(C(=O)O)cc3)s2)cc1 | 6.88%
61 | O=C(COC(=O)Cn1cnc2ccccc2c1=O)NCC12CC3CC(CC(C3)C1)C2 | 6.05%
62 | NC(=O)CC(NC(=O)Cc1ccc(Cl)cc1)c1ccc(N2CCN(c3ccccn3)CC2)c([N+](=O)[O-])c1 (centres unmarked) | 19.5%
63 | CC1=NN(C(=O)c2csc(C)c2)C(O)(C(F)(F)F)C1 (centres unmarked) | 11.5%
64 | O=C(Cn1c(=O)n(CCCCC(=O)NC2CCCC2)c(=O)c2ccccc21)NCCC1=CCCCC1 | 6.47%
65 | Cc1nc(C)c(C(=O)Nc2cccc(C)c2C)o1 | 4.71%
66 | O=C(CCC(=O)c1cccs1)NNC(=O)c1ccccc1Cl | 7.93%

Row | SMILES | hERG current change (%, negative = inhibition) at 1uM
67 | CCOc1ccc(C(=O)CC(Sc2ccc(C)cc2)C(=O)O)cc1 (centres unmarked) | 9.44%
68 | COc1cc(OC)cc(-c2nnc(NC(=O)c3ccc4c(c3)OCCO4)o2)c1 | 5.57%
69 | Cc1cccc2cc(/C=N/NC(=O)CN3CCCCC3)c(Cl)nc12 | 7.4%
70 | Nc1cccc(NC(=O)CCC(=O)NCc2ccco2)c1 | 16%
71 | Br.CC1=CS(=O)(=O)CC1Sc1ncn[nH]1 (centres unmarked) | 3.31%
72 | CC(C)N(C(=O)NC(=O)Nc1ccccn1)S(C)(=O)=O | 7.36%
73 | Cc1ccc(C(=O)NCCNc2ccc(Cl)cc2[N+](=O)[O-])o1 | -11%
74 | O=S(=O)(c1ccccc1)N1CCN(C(=S)NCCCN2CCOCC2)CC1 | 17.7%
75 | O=C(CCCC(=O)N/N=C/c1ccccc1C(=O)O)N/N=C/c1ccccc1C(=O)O | 14.3%
76 | CS(=O)(=O)c1ccccc1C(=O)Nc1ccc2sccc2c1 | 12.4%
77 | COc1cccc(N2C(C(C)=O)=NN(c3ccccc3)C2c2ccc(N3CCOCC3)cc2)c1 (centres unmarked) | 10.6%
78 | COc1ccc(C2/C=C\CN(S(=O)(=O)c3ccc4ccccc4c3)CC(=O)N2Cc2ccc(F)cc2)cc1 (centres unmarked) | 9.7%
79 | COc1ccc2c(CC(=O)Nc3ncc(C)s3)coc2c1 | 8.3%
80 | CCOC(=O)C1CCCN(S(=O)(=O)c2cccc3cccnc23)C1 (centres unmarked) | 10.1%
81 | CN(CC(=O)N1CCOCC1)C(=O)CSc1nc2ccccc2s1 | 3.83%
82 | COc1ccc(N2CCN(S(=O)(=O)c3ccc(-c4cc(C)no4)s3)CC2)cc1 | 20.2%
83 | Cc1cc(N2CCOCC2)ccc1/C=C\[N+](=O)[O-] | 5.75%
84 | Cc1ccc(NS(=O)(=O)c2cc(C(=O)NCCSc3ccc(C)cc3)ccc2C)cc1 | 8.34%
85 | CN(C)c1ccc(CNc2ccccn2)cc1 | 14.4%
86 | Oc1ccccc1/C=N/n1cnnc1 | 15.6%
